Values joined by “and” are separate entries in the source; they are usually repeats but may differ in a detail not shown here. Identical values can stand only once.
Columns and labels:
[1] = molecular target: liraglutide fibrils (human) (UniProt P01275); experiment: ELISA Assay (III-B); row labelled 1 uM; two-step purified antibody; raw signal, mean of 3
[2] = molecular target: soluble liraglutide (human) (UniProt P01275); experiment: as above
[3] = molecular target: liraglutide fibrils (human) (UniProt P01275); experiment: ELISA Assay (VI-B); 0.025 uM fibrils in 1600 uM soluble liraglutide; 50 nM antibody; average of 4 experiments
[4] = molecular target: liraglutide fibrils (human) (UniProt P01275); experiment: ELISA Assay (III-B); row labelled 300 uM; two-step purified antibody; A450 ratio, mean of 3
[5] = molecular target: liraglutide fibrils (human) (UniProt P01275); experiment: ELISA Assay (VI-B); 1 uM fibrils in 1600 uM soluble liraglutide; 50 nM antibody; average of 4 experiments
[6] = molecular target: liraglutide fibrils (human) (UniProt P01275); experiment: ELISA Assay (III-B); row labelled 0.10 uM; two-step purified antibody; raw signal, mean of 3
[7] = molecular target: soluble liraglutide (human) (UniProt P01275); experiment: as above
[8] = molecular target: liraglutide fibrils (human) (UniProt P01275); experiment: ELISA Assay (III-B); row labelled 0.1 uM; two-step purified antibody; A450 ratio, mean of 3
[9] = molecular target: liraglutide fibrils (human) (UniProt P01275); experiment: ELISA Assay (III-B); row labelled 3 uM; two-step purified antibody; A450 ratio, mean of 3
[10] = molecular target: liraglutide fibrils (human) (UniProt P01275); experiment: ELISA Assay (VI-B); 0.100 uM fibrils in 1600 uM soluble liraglutide; 50 nM antibody
[11] = molecular target: liraglutide fibrils (human) (UniProt P01275); experiment: ELISA Assay (III-B); row labelled 0.30 uM; two-step purified antibody; raw signal, mean of 3
[12] = molecular target: soluble liraglutide (human) (UniProt P01275); experiment: as above
[13] = molecular target: liraglutide fibrils (human) (UniProt P01275); experiment: ELISA Assay (VI-B); 2.5 uM fibrils in 1600 uM soluble liraglutide; 50 nM antibody
[14] = molecular target: liraglutide fibrils (human) (UniProt P01275); experiment: ELISA Assay (VI-B); 0.01 uM fibrils in 1600 uM soluble liraglutide; 50 nM antibody; average of 4 experiments
[15] = molecular target: liraglutide fibrils (human) (UniProt P01275); experiment: ELISA Assay (VI-B); 0.0025 uM fibrils in 1600 uM soluble liraglutide; 50 nM antibody
[16] = molecular target: liraglutide fibrils (human) (UniProt P01275); experiment: ELISA Assay (III-B); row labelled 0.03 uM; two-step purified antibody; A450 ratio, mean of 3
[17] = molecular target: liraglutide fibrils (human) (UniProt P01275); experiment: ELISA Assay (VI-B); 2.500 uM fibrils in 1600 uM soluble liraglutide; 50 nM antibody

antibody binding signal (absorbance at 450 nm) [1]: 0.15
antibody binding signal (absorbance at 450 nm) [2]: 0.05
Specificity Ratio (liraglutide fibril in mixture/soluble liraglutide) [3]: 14.4
Liraglutide fibril specificity (Liraglutide fibril/Liraglutide monomer) [4]: 6.81
Specificity Ratio (liraglutide fibril in mixture/soluble liraglutide) [5]: 46.6
antibody binding signal (absorbance at 450 nm) [6]: 0.07
antibody binding signal (absorbance at 450 nm) [7]: 0.04
Liraglutide fibril specificity (Liraglutide fibril/Liraglutide monomer) [8]: 1.61
Liraglutide fibril specificity (Liraglutide fibril/Liraglutide monomer) [9]: 5.9
Specificity Ratio (liraglutide fibril in mixture/soluble liraglutide) [10]: 32.1
antibody binding signal (absorbance at 450 nm) [11]: 0.09
antibody binding signal (absorbance at 450 nm) [12]: 0.05
Specificity Ratio (liraglutide fibril in mixture/soluble liraglutide) [13]: 50.4 (2×) and 46.6 and 45.8
Specificity Ratio (liraglutide fibril in mixture/soluble liraglutide) [14]: 6.81
Specificity Ratio (liraglutide fibril in mixture/soluble liraglutide) [15]: 3.53 and 1.66 and 2.16
Liraglutide fibril specificity (Liraglutide fibril/Liraglutide monomer) [16]: 1.58
Specificity Ratio (liraglutide fibril in mixture/soluble liraglutide) [17]: 48.3
B1: Antibody M (Fc fusion)
scFv: DIQMTQSPSSLSASVGDRVTITCRASQSVAAAVAWYQQKPDKAPKLLIYSASFLYSGVPSRFSGSRSGTDFTLTISSLQPEDFATYYCQQHNTYPPTFGQGTKVEIKRTSPNSASHSGSAPQTSSAPGSQEVQLVESGGGLVQPGGSLRLSCAASGFNIKDTYIHWVRQAPGKGLEWVARISPSSGSTRYAGSVKGRFTISADTSKNTAYLQMNSLRAEDTAVYYCAREWYEASYYDWFDYFDFSDYWGQGTLVTVSSAAA[human IgG1 Fc not written out]GSHHHHHHKLDYKDHDGDYKDHDIDYKDDDDK
